In PubChem BioAssay AID1345082 (National Center for Advancing Translational Sciences (NCATS), 2018):
Screen size: about 94,000 compounds; about 4,000 (4.3%) were called active. The shares of active, inactive and inconclusive entries below differ from those in the screen. The call rests on the fitted dose curve; in most records, active means well fitted inhibition curve with a large enough effect; inconclusive means small, poorly fitted or top-dose-only effect; inactive means no such curve, though single readings can be large or run the other way. Where the call is inconclusive, the potency comes from a doubtful curve fit.

experiment: Cytotoxic Profiling in NIH 3T3 Cell Line of Diverse Libraries Using Quantitative High-Throughput Screening; conditions: NIH 3T3 viability, CellTiter-Glo ATP luminescence, 48-72 h; activity change, negative = cytotoxicity: at 96.7 µM (top of the series); series mostly up to 96.7 µM; further: nearly all actives have a fitted effect of over 55% in size
In short: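 Mouse fibroblast NIH 3T3 cells, 400 per well, received compound via pintool and were incubated for 48 or 72 hr prior to CellTiter-Glo ATP luminescence measurement.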
On the % scale 0 is the no-effect control and ±100 the full control effect; potency means the concentration at half of the fitted maximal effect; tags describe the fitted curve by direction and shape.

| Compound | Potency | activity change, negative = cytotoxicity | outcome |
| --- | --- | --- | --- |
| O=C(NCCCc1ccccc1)c1cc(-c2cccc(C(F)(F)F)c2)c2cccn2n1 | inconclusive: 50.1 µM [inhibitor, partial curve, poor fit] | – | – |
| O=C(CC[C@H]1NC(=O)c2ccccc2NC1=O)Nc1nc(-c2ccncc2)cs1 | inconclusive: 35.5 µM [inhibitor, single point] | – | – |
| O=C(c1ccc(F)cc1)N1CCC2(CC1)COc1ccccc1NC2=O | – | inactive: -28.8% | – |
| COc1ccc(-c2cc(C(=O)NCc3cnn(C)c3)c3c(c2)N(C)CCO3)cc1 | inconclusive: 56.2 µM [inhibitor, partial curve, poor fit] | – | – |
| Cc1cn2nnc(C(=O)NCC(C)c3ccccc3)c2c(=O)[nH]1 (stereo not given) | inconclusive: 70.8 µM [inhibitor, single point] | – | – |
| O=C(O)Cn1ccc2cc(OCCc3cccc(-c4ccc(F)cc4)c3)cnc21 | inconclusive: 100 µM [inhibitor, partial curve, poor fit] | – | – |
| COc1ccc(C(=O)N2CCC3(CC2)NC(=O)N(c2ccc(F)cc2)N3)cc1F | inconclusive: 44.7 µM [inhibitor, partial curve, poor fit] | – | – |
| Cc1noc(-c2ccccc2OC2CCNC2)n1 (stereo not given) | – | inactive: -21.7% | – |
| O=C([C@@H]1C[C@H](Oc2ccccc2)CN1C(=O)c1ccc2ccccc2n1)N1CCOCC1 | inconclusive: 50.1 µM [inhibitor, partial curve, poor fit] | – | – |
| O=C1COc2ccc(-c3ccccc3)nc2CN1Cc1ccc(F)cc1 | inconclusive: 56.2 µM [inhibitor, partial curve, poor fit] | – | – |
| COc1ccc(S(=O)(=O)N2CCC3(CC2)CC(N(C)Cc2ccccc2)CCO3)cc1 (stereo not given) | inconclusive: 39.8 µM [inhibitor, partial curve] | – | – |
| CC1(COc2ccccc2)COc2ccc(C(=O)NCCc3cnc[nH]3)cc2N1 (stereo not given) | inconclusive: 112 µM [inhibitor, single point] | – | – |
| O=C(NC[C@H]1O[C@H](Cc2cc(COc3ccccc3)on2)CC[C@@H]1O)Nc1cccc(F)c1 | inconclusive: 56.2 µM [inhibitor, partial curve, poor fit] | – | – |
| O=C(NCc1ccc(F)cc1)c1nc2sccn2c1-c1ccncc1 | inconclusive: 50.1 µM [inhibitor, partial curve, poor fit] | – | – |
| O=C(C1CCOCC1)N1CCC(Oc2cnc3c(ccn3-c3cncnc3)c2)CC1 | inconclusive: 100 µM [inhibitor, partial curve, poor fit] | – | – |
| Cc1noc(C)c1[S+](=O)([O-])NC1CCN(Cc2ccc(-c3ccsc3)cc2)C1 (stereo not given) | inconclusive: 44.7 µM [inhibitor, partial curve, poor fit] | – | – |
| COc1cccc(-c2csc(CN3CCCC(C)(NC(C)=O)C3)c2)c1 (stereo not given) | inconclusive: 70.8 µM [inhibitor, partial curve] | – | – |
| Cc1cc(C(=O)N2CCOC[C@H](Oc3cnccn3)C2)c(C(F)(F)F)o1 | – | – | inactive [at 174 µM] |
| CC(C)c1noc(-c2cn(C3CCN(C(=O)COc4ccc(F)cc4)CC3)nn2)n1 | inconclusive: 3.16 µM [inhibitor, full curve, poor fit] | – | – |
| O=C1NC2(CCCN(Cc3ccccc3)C2)Oc2ccccc21 (stereo not given) | inconclusive: 56.2 µM [inhibitor, partial curve, poor fit] | – | – |

| Compound | Potency | activity change, negative = cytotoxicity | outcome |
| --- | --- | --- | --- |
| O=C(C1CC1)N1CCCN(Cc2ccc3c(c2)OCO3)c2ccccc21 | inconclusive: 44.7 µM [inhibitor, partial curve, poor fit] | – | – |
| COc1ccc(OC2CN(Cc3ccc(C(F)(F)F)cc3)C2)cc1 | inconclusive: 79.4 µM [inhibitor, partial curve, poor fit] | – | – |
| O=C1NC(=NC2CCCC2)C2(CCN(CC3CC3)CC2)N1c1cc(F)cc(F)c1 | active: 31.6 µM | – | – |
| CC(C)c1cccc(C(C)C)c1NC(=O)N1CCc2c(c3cc(F)ccc3n2C)C1 | inconclusive: 50.1 µM [inhibitor, partial curve, poor fit] | – | – |
| Cc1cccc(C(=O)N2CCC(n3cc(-c4nc(C)no4)nn3)CC2)c1 | inconclusive: 50.1 µM [inhibitor, partial curve, poor fit] | – | – |
| Cc1ccccc1Oc1ncccc1CNCc1cccc(O)c1 | – | inactive: -21% | – |
| COCCOc1cc(C)c2c(c1C)C[C@H](C(C)C(=O)NCc1cccs1)CC2 (stereo not given in full) | inconclusive: 79.4 µM [inhibitor, partial curve] | – | – |
| Cc1cccc(S(=O)(=O)N2CCc3c(C(=O)NCCCN4CCCCC4)cccc32)c1 | inconclusive: 50.1 µM [inhibitor, partial curve, poor fit] | – | – |
| O=C(c1n[nH]c2c1CCCC2)N1CCCC2(C1)Nc1cccnc1NC2=NC1CCCC1 (stereo not given) | inconclusive: 50.1 µM [inhibitor, partial curve, poor fit] | – | – |
| COc1cc(C)c(-c2nc(CN3CCN(C)C(=O)C3)c(C)o2)cc1C | inconclusive: 50.1 µM [inhibitor, partial curve, poor fit] | – | – |
| O=C(NCC1CN(C(=O)Cc2ccc(OC(F)(F)F)cc2)CC12CN(c1ccccc1)C2)Nc1ccccc1 (stereo not given) | active: 28.2 µM | – | – |
| COc1ccc(C(=O)NC[C@@H]2C=C(C)[C@H](Cc3nnc(-c4cncn4C)o3)C[C@H]2C(C)C)cc1 | active: 25.1 µM | – | – |
| COc1ccc(C(=O)N[C@@H]2CCC[C@@H]2C(=O)NCc2ccccc2C(F)(F)F)cc1 | – | inactive: -8.31% | – |
| O=C(NCc1ccco1)c1ccc(-c2ccc(N3CCCCCC3)nc2)cc1 | inconclusive: 31.6 µM [inhibitor, full curve, poor fit] | – | – |
| CCC1c2nccn2CCCN1C(=O)c1ccc(OC)nc1OC (stereo not given) | – | inactive: -7.02% | – |
| CCC(=O)NCc1cc2c(nc1OC)CN(C1CCCC1)C2=O | inconclusive: 100 µM [inhibitor, partial curve, poor fit] | – | – |
| Cn1nccc1OCc1cn2c(=O)n(C)cc(-c3cccc(OCc4ccccc4)c3)c2n1 | inconclusive: 11.2 µM [inhibitor, full curve, poor fit] | – | – |
| Cc1ccc(S(=O)(=O)N[C@H]2CO[C@H]3[C@@H]2OC[C@@H]3Nc2nccc(C(C)(C)C)n2)cc1 | inconclusive: 112 µM [inhibitor, partial curve, poor fit] | – | – |
| CCn1cc(Cl)c(C(=O)N2CCc3c(nc4cc(-c5ccccc5)[nH]n4c3=O)C2)n1 | – | inactive: -8% | – |
| Cc1nc(CNC(=O)CC2C(=O)NCCN2Cc2ccccn2)n[nH]1 (stereo not given) | inconclusive: 89.1 µM [inhibitor, partial curve, poor fit] | – | – |

| Compound | Potency | activity change, negative = cytotoxicity | outcome |
| --- | --- | --- | --- |
| CN1CC[C@H](N(Cc2ccccc2)C(=O)CC2CCCC2)C[C@H](O)C1 | inconclusive: 56.2 µM [inhibitor, single point] | – | – |
| O=C(NCc1ccccn1)c1nc2sccn2c1-c1ccc(C(F)(F)F)cc1 | – | inactive: -97.8% | – |
| CC(NC(=O)Cc1ccc(N(Cc2ccccc2)C(=O)c2ccco2)cc1)c1ccccc1 (stereo not given) | inconclusive: 50.1 µM [inhibitor, partial curve, poor fit] | – | – |
| CC(=O)NC[C@@H]1C=C(C)[C@H](CC(=O)NCc2ccc(F)cc2)C[C@H]1C(C)C | inconclusive: 126 µM [inhibitor, single point] | – | – |
| COc1ccc(OC)c([S+](=O)([O-])c2nnn3c2nc(NCc2ccc(F)cc2)c2ccccc23)c1 | inconclusive: 63.1 µM [inhibitor, partial curve, poor fit] | – | – |
| Cc1ccc(-c2c(C(=O)NCc3ccc(F)cc3)nc3sccn23)cc1 | inconclusive: 28.2 µM [inhibitor, partial curve] | – | – |
| Cc1noc(C)c1-c1cc2cc(CN(C)C)oc2c(-c2ccc([S+](C)(=O)[O-])cc2)n1 | inconclusive: 89.1 µM [inhibitor, partial curve, poor fit] | – | – |
| O=C(NCCCc1ccccc1)c1n[nH]c2c1CN(C(=O)c1ccc(F)cc1F)CC2 | inconclusive: 25.1 µM [inhibitor, full curve, poor fit] | – | – |
| O=C(C1CCC1)N1C[C@@H]2CC[C@H](C1)N(C(=O)Nc1ccc(F)c(F)c1)C2 | inconclusive: 79.4 µM [inhibitor, partial curve, poor fit] | – | – |
| Cc1ccc(C)c(CN2C(=O)NC3(CCCN(C(=O)c4ccc(C)c(F)c4)C3)C2=O)c1 (stereo not given) | inconclusive: 44.7 µM [inhibitor, partial curve, poor fit] | – | – |
| Cn1ncc2c(C(=O)NCc3ccc(F)c(F)c3)cc(-c3cccc(F)c3)nc21 | inconclusive: 50.1 µM [inhibitor, partial curve, poor fit] | – | – |
| Cc1ccsc1C(=O)N1CCC2(CC1)CC(N(Cc1ccccc1)C1CC1)CCO2 (stereo not given) | inconclusive: 44.7 µM [inhibitor, partial curve, poor fit] | – | – |
| COc1cccc(-c2cccc(C(=O)N3CCCC3C(=O)NCCc3ccccc3)c2)c1 (stereo not given) | inconclusive: 50.1 µM [inhibitor, partial curve, poor fit] | – | – |
| CCc1ccc(C(=O)Nc2ccc3c(N4CCOCC4)ncnc3c2)cc1 | active: 8.91 µM | – | – |
| COc1ccccc1-c1cc(-c2ccncc2)c2cncn2c1 | active: 11.2 µM | – | – |
| CNC(=O)[C@@H]1C[C@@H](O)CN1C1CCN(C(=O)c2cccc(OC)c2)CC1 | – | inactive: -2.9% | – |
| COCCn1cnc2ccc(-c3ccc(F)c(Cl)c3)nc2c1=O | inconclusive: 56.2 µM [inhibitor, partial curve, poor fit] | – | – |
| CCOc1ccccc1C(=O)NC1CCN(c2cc(-c3ccc(OC)cc3)[nH]n2)CC1 | active: 35.5 µM | – | – |
| O=C(NC1CCCCCC1)C1CCN(c2ccnc3ccnn23)CC1 | – | inactive: -49.9% [at 138 µM] | – |
| CNC(=O)c1cc(C2CC2)nc2c1c(C1CCN(C(=O)Nc3ccc(Cl)cc3)C1)nn2C (stereo not given) | inconclusive: 70.8 µM [inhibitor, partial curve, poor fit] | – | – |
